The values that follow come from article PMC6919601, “Identification of Plasmodium dipeptidyl aminopeptidase allosteric inhibitors by high throughput screening” (PLoS ONE, 2019).

Among all 110,000 compounds or so, about 230 (0.21%) showed an effect of 50% or more. The list shows a part of the results.
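Note: 30 min substrate incubation versus DMSO and 10 µM JCP410 controls.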

Chain of DPAP1 (Q8IIJ9 whole entry, looked up): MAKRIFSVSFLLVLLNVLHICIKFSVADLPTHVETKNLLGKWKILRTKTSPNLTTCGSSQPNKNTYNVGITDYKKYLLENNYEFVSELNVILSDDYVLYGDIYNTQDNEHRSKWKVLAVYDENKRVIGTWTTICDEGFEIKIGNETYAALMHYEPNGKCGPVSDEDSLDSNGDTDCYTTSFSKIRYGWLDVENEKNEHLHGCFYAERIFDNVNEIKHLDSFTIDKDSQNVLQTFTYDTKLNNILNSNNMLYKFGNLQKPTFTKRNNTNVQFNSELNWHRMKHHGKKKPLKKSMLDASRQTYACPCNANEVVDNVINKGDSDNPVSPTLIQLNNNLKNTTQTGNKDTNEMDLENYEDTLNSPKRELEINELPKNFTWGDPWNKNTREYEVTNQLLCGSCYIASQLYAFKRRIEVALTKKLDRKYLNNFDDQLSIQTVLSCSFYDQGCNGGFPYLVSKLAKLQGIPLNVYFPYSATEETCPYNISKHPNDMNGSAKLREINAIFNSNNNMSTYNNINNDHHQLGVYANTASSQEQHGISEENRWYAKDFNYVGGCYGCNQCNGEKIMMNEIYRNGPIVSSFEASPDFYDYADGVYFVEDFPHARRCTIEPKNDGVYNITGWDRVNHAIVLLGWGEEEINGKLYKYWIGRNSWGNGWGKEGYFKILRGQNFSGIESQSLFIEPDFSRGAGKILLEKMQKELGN

This assay addresses DPAP1 (Plasmodium falciparum, UniProt Q8IIJ9). As to the kind of experiment: primary screen, percent inhibition; read by cleavage of a fluorogenic dipeptide substrate; higher = more effect of the substance. Also on record: species or system P. falciparum D10 trophozoite lysates; single well.
`COc1ccc(-c2cc(C(F)(F)F)nc(SCC(=O)N3CCOCC3)n2)cc1`: the “% Inhibition @ 10 uM” value is -8.55%. For `Cc1ccccc1CNC(=O)Nc1sc2nc3n(c(=O)c2c1C)CCC(C)CC3` (stereo not shown) the value was 1.68%; for `Cn1c(=O)c2c(nc(CN3CCOCC3)n2Cc2cccc3ccccc23)n(C)c1=O`, -4.14%. Turning to `Cc1ccc(N(CC(=O)NC2CC2)S(=O)(=O)c2ccccc2)c(C)c1`, the “% Inhibition @ 10 uM” value is given as -2.28%.

For `Cc1nc(SCc2nc3ccccc3[nH]2)c2ccccc2n1`, the “% Inhibition @ 10 uM” value is 1.17%. For `O=C(Cn1cc2c(n1)CCCC2)N1CCc2ccccc2C1` the value was -3.58%; for `O=C(Nc1cccc(Cl)c1)N1CCOCC1`, 2.51%. The value for `O=c1/c(=C/c2ccc(OCc3ccccc3)cc2)sc2nc(-c3ccco3)nn12` was -3.64%; that for `COc1ccc(NC(=N)Nc2nc(O)cc(CSc3ccc(Cl)cc3)n2)cc1` was -0.872%. Take `Cc1ccccc1CN(c1ccc(C(=O)N2CCN(Cc3ccccc3)CC2)cc1)S(C)(=O)=O`: the “% Inhibition @ 10 uM” value is -7.45%. For `O=C(NCC1CCCO1)c1cc(-c2ccc(F)cc2)no1` (stereo not shown) the value was 1.05%; for `CCN(CC)CCN(C)Cc1ccc(NC(C)=O)cc1`, -4.75%.

For the compound `CC1=CC(C)C(COC(=O)Nc2ccccc2)C(C)C1` (stereo not shown), the “% Inhibition @ 10 uM” value is -6.82%. The value for `COc1ccc(CCn2c(SCC(N)=O)nc3nccnc3c2=O)cc1OC` was -0.0652%; that for `CCOC(=O)c1cnc2cc(C)nn2c1O` was -3.34%.

Turning to `COc1ccc(CCNC(=O)c2c(C)cc(=O)oc2C)cc1OC`, the “% Inhibition @ 10 uM” value was -0.519%. The value for `Cc1c(NC(=S)NC(=O)c2ccc(-c3ccccc3)cc2)c(=O)n(-c2ccccc2)n1C` was 5.61%; that for `Cc1nc2ccccc2nc1CSCc1ccco1` was -1.05%.

Regarding `Cc1ccc(Cl)cc1N(CC(=O)NCCc1ccccc1)S(C)(=O)=O`, the “% Inhibition @ 10 uM” value is 0.331%. For the compound `C=CCOc1ccc(S(=O)(=O)c2ccc(O)cc2)cc1`, the “% Inhibition @ 10 uM” value was 1.63%. The value for `CCC1=Nc2ncnn2C(c2cccc(OC)c2OC)/C1=C(/O)OC` (stereo not shown) was -3.37%; that for `CCOC(=O)c1nnn(-c2nonc2N)c1CNCC(O)c1ccccc1` (stereo not shown) was 2.8%; that for `Cc1nc2c(C(=O)NCCCN3CCOCC3)cnn2c(C)c1Cc1ccc(F)cc1` was -0.519%.

For the compound `Cc1ccc2[nH]c3c(c2c1)CCCC3C(=O)O` (stereo not shown), the “% Inhibition @ 10 uM” value is listed as 21%.

With `O=c1c(-c2ccccc2)c(O)cc2c3ccccc3c3ccccc3n12`, the “% Inhibition @ 10 uM” value is listed as 3.05%. As to `CC(C)C1(O)c2ccccc2-c2ncccc21` (stereo not shown), the “% Inhibition @ 10 uM” value was 2%. For the compound `CCn1c2ccccc2c2nnc(N3CCC(N4CCCCC4)CC3)nc21`, the “% Inhibition @ 10 uM” value is on record as 0.522%. The value for `COc1ccc(C(=O)N/C(=C/c2ccc(F)cc2)C(=O)Nc2ccc(C)cc2)cc1OC` was 2.36%. Turning to `O=C(Cc1ccccc1)Nc1ccc(S(=O)(=O)N2CCc3ccccc32)cc1`, the “% Inhibition @ 10 uM” value was 5.03%.

As to `COc1ccc(Br)cc1/C=C1N=C(/C=C/c2ccc(C)cc2)OC\1=O`, the “% Inhibition @ 10 uM” value is listed as 3.26%. For `O=C1CC(Sc2ccccn2)C(=O)N1c1ccccc1` (stereo not shown) the value was -4.41%; for `Cn1cccc1Cc1nnc(SCC(=O)NCC2CCCO2)n1Cc1ccccc1` (stereo not shown), -4.97%; for `COCCNC(=O)C(=O)NCc1ccccn1`, 1.81%.

Turning to `CCNS(=O)(=O)c1ccc(CCC(=O)NCc2cccnc2)cc1`, the “% Inhibition @ 10 uM” value came out at 5.93%. For `CCOc1ccc(C(=O)Nc2ccc(NC(=O)c3cc4ccccc4o3)c(OC)c2)cc1` the value was 2.39%; for `CS/C(=N\Cc1ccco1)Nc1[nH]nc(C)c1-c1ccccc1F`, -2.28%; for `O=S(=O)(/N=C(/c1ccccc1)N1CCOCC1)c1ccccc1`, -1.1%. The value for `O=C(c1ccc(-n2cnc3cccnc32)cc1)N1CCC2(CC1)OCCO2` was -0.416%. The value for `CCC(=O)Nc1nn(C)c2nc(C)c(Cl)c(C)c12` was 17.6%. Consider `CCOCCCNc1oc(/C=C/c2cc(OC)c(OC)c(OC)c2)nc1C#N`, for which the “% Inhibition @ 10 uM” value is on record as 0.895%. For `Cc1cc(C)nc(NC(=O)Nc2cccc3ccccc23)c1` the value was 4.17%; for `COC(=O)C1=C(C)N(Cc2ccco2)C(=O)/C1=C\c1cc(C)n(-c2ccccc2C(F)(F)F)c1C`, 3.27%; for `Clc1cccc(Cl)c1CN1CCC(N2CCCCC2)CC1`, -3.5%. The value for `N#C/C(=C\c1ccc(O)cc1)C(=O)NCCc1ccccc1Cl` was -0.256%. For `COc1ccccc1NC(=O)C1C(C(=O)O)C2C=CC1C21CC1` (stereo not shown) the value was 3.25%; for `CCOc1ccc(C2CC(=O)N3CN(Cc4ccccc4)CSC3=C2C#N)cc1` (stereo not shown), 48.5%; for `CCOC(=O)N1CCN(c2ccncc2S(=O)(=O)N2CCCCC2)CC1`, 1.94%. For `COCCCn1c(=N)c(S(=O)(=O)c2ccc(C)cc2)cc2c(=O)n3ccccc3nc21`, the “% Inhibition @ 10 uM” value is listed as -5.01%.

With `C=CCn1c(SCC(=O)Nc2ccccc2)nc2sc(C)c(C)c2c1=O`, the “% Inhibition @ 10 uM” value was found to be 2.7%. For `CC(C)CCNC(=O)CCCCn1c(=O)[nH]c2ccsc2c1=O` the value was 4.02%; for `Cc1c(Cl)c(=O)oc2cc(OCC(=O)c3ccc(Cl)cc3)ccc12`, -1.26%; for `CC(C)(C)c1ccc2c(c1)OP(=O)(O)C=C2c1ccccc1`, -9.48%.

Regarding `COc1cccc(CNC(=O)COc2ccccc2C#N)c1OC`, the “% Inhibition @ 10 uM” value is reported as -1.6%. For `CCOC(=O)c1ccc2[nH]c3c(c2c1)CCCC3O` (stereo not shown) the value was -0.693%. The value for `N#CC1=C(N)C(C#N)(C#N)[C@@H](c2ccccc2C(F)(F)F)[C@@H]2CCCC=C12` was -9.32%; that for `O=S(=O)(NCCc1ccncc1)c1ccccc1` was 0.316%; that for `CCN(CC)CCCCOc1ccc(C(C)(C)C)cc1` was -0.414%. For `Cc1cccc(C2=N/C(=C\c3cccc(C(F)(F)F)c3)C(=O)O2)c1` the value was 1.25%; for `Cc1cc(C(F)(F)F)nn1CC(=O)Nc1sc2c(c1C(N)=O)CCC(C(C)(C)C)C2` (stereo not shown), 1.08%; for `COc1cc(OC)c(OC)cc1CN1CCN(C2CCCC(C)C2)CC1` (stereo not shown), 0.611%. For `Cc1ccc2oc3c(c(=O)c2c1)C(c1ccc(F)cc1)N(c1ccccn1)C3=O` (stereo not shown), the “% Inhibition @ 10 uM” value stood at 0.415%. The value for `N#CCOc1ccccc1/C=C1/Sc2ccccc2C1=O` was -0.988%.

In the case of `Cc1ccc(CNC(=O)C2CCC(CNc3c(N4CCC(C)CC4)c(=O)c3=O)CC2)cc1` (stereo not shown), the “% Inhibition @ 10 uM” value is 5.91%.

In the case of `CCN(CC)c1ccc2c(O)cc(=O)oc2c1`, the “% Inhibition @ 10 uM” value is reported as -1.85%.
